Experimental data from PubChem BioAssay AID434955 (Southern Research Specialized Biocontainment Screening …, 2010).
The other results are listed elsewhere or left out. Shown are side measurements of this screen, not its main read-out; they come without a call. Most of these compounds were active or inconclusive in the main read-out, so they are no random draw.

Assay: beta-lactam sensitization of Mtb H37Rv, H37Rv (AID 434955);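 note: growth measured after seven days incubation then overnight dye step; 0% = bacteria only wells and 100% = bacteria with antibiotic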
Conditions: M. tuberculosis H37Rv growth with meropenem, percent inhibition; measured here: primary screen without meropenem; at 25 µM

Row | Structure (SMILES) | inhibition [%]
1 | CCOc1ccccc1N(CC(=O)OC)S(=O)(=O)c1ccccc1 | 5.45
2 | CSc1cccc(CN2CCC(Oc3cccc(C(=O)N4CCCC4)c3)CC2)c1 | 5.91
3 | CCCCOC(=O)n1c(=O)oc2cc(S(=O)(=O)N3CCCCC3)ccc21 | -1.49
4 | COc1cc(/C=C/C(=O)OCC(=O)Nc2cc(C)c(C)cc2[N+](=O)[O-])ccc1O | -5.92
5 | CN(C)CCCN(C(=O)c1ccc2c(c1)CCCC2)c1nc2c(F)cccc2s1 | -3.67
6 | Cc1cc([N+](=O)[O-])c(-c2ccc(/C=N/n3cnnc3)o2)cc1Cl | -5.54
7 | Cc1ccc(S(=O)(=O)N2CCCCC2C(=O)N(C)c2ccccc2)cc1 (stereo unspecified) | -9.98
8 | Cc1cc(C(=O)COC(=O)CN=C2NS(=O)(=O)c3ccccc32)c(C)n1CCc1ccc(Cl)cc1 | 3.26
9 | O=C(CCc1nnc2ccc(N3CCC4(CC3)OCCO4)nn12)NCc1ccc(F)cc1 | -1.98
10 | c1ccc2c(c1)CC1CNCc3cccc(c31)S2 (stereo unspecified) | 12.9
11 | CCNc1nc(CN2CCCCC2)nc2scc(-c3ccccc3)c12 | 40.7
12 | Cc1cc(C)n2c(SCC#N)nnc2n1 | -7.74
13 | COCCNC(=O)/C(C#N)=C/c1c(N2CCCCCC2)nc2ccccn2c1=O | 5.57
14 | O=c1oc(-c2ccccc2F)nc2scc(-c3ccccc3)c12 | 7.37
15 | CC(=O)Nc1ccc(S(=O)(=O)NC2(C(F)(F)F)NC(=O)N(c3ccc(C)cc3)C2=O)cc1 (stereo unspecified) | 14.4
16 | O=C(/C=C/c1ccccc1)NC(=S)Nc1ccccc1O | 73.8
17 | Cc1ccc(SCc2[nH]nc3c2C(c2ccc(C)o2)C(C#N)=C(N)O3)cc1 (stereo unspecified) | 2
18 | Cc1cccc(C)c1OCc1cc(C(=O)N2CCN(c3ccccc3)CC2C)no1 (stereo unspecified) | 61.7
19 | CCOc1ccccc1NC(=S)NC(=O)C1CC1 | 96.8
20 | Cc1cc2ccccc2n1CCNC(=O)COc1ccccc1 | 35
21 | CC1CCc2nn(CC(=O)NCCN3CCCCC3C)cc2C1 (stereo unspecified) | -4.68
22 | CN1CCN(CC(=O)Nc2c(C(=O)C3CC3)oc3ccccc23)CC1 | -1.34

Row | Structure (SMILES) | inhibition [%]
23 | FC(F)(F)c1ccccc1/C=N/n1c(COc2ccccc2)n[nH]c1=S | -0.82
24 | CCCCCC1CC(CC#CCN2CCOCC2)C(=O)O1 (stereo unspecified) | -2.08
25 | CC(C)(C)NC(=O)CSc1nc(-c2ccccc2)c(-c2ccccc2)[nH]1 | 1.55
26 | CCc1ccc(/C=N/n2c(C3CCCCC3)n[nH]c2=S)cc1 | 11.4
27 | O=c1c2ccccc2c(-c2ccccc2)nn1-c1ccccc1 | 35.6
28 | O=S(=O)(Nc1cccc(-n2cnnn2)c1)c1cnc(Cl)c(Cl)c1 | -8.25
29 | O=C(COC(=O)CCSc1ccc(Cl)cc1)NCc1ccccc1 | 3.86
30 | Cc1ccc(S(=O)(=O)NNC(=O)NC23CC4CC(CC(C4)C2)C3)cc1 | 3.15
31 | Cc1cc(OCc2cc(C(=O)N(C)C3CCOCC3)no2)cc(C)c1Cl | 3.27
32 | CCCn1c(=O)c(C(=O)NNC(=O)c2ccccc2[N+](=O)[O-])c(O)c2ccccc21 | 3.66
33 | CC(C)N1CCc2c(sc(NC(=O)c3ccc(S(=O)(=O)N(C)CC4CCCO4)cc3)c2C(N)=O)C1 (stereo unspecified) | -0.72
34 | Cn1c2ccccc2c(=O)c2cc(C#CC3(O)CCCCC3)ccc21 | 31.1
35 | CCCCn1c(CCCNC(=O)c2ccco2)nc2ccccc21 | -1.82
36 | Cc1ccc(C2=NN3C(=O)c4ccccc4C3C2)cc1 (stereo unspecified) | 44.9
37 | CCOC(=O)C1(Cc2cccc(Cl)c2)CCCN(C(=O)c2cc(C(C)C)nn2C)C1 (stereo unspecified) | -0.27
38 | C=C(C)C(=O)OC1(C(F)(F)F)Oc2cc(C)ccc2NC1=O (stereo unspecified) | -1.95
39 | CCCCNC(=O)c1sc2nc(C)cc(COC)c2c1-n1cccc1 | -9.19
40 | CCCCC(NC(=O)Cc1c(C)c2cc3c4c(oc3cc2oc1=O)CCCC4)C(=O)O (stereo unspecified) | -1.31
41 | CCC(=O)NC(=S)Nc1ccc(NC(=O)c2cccc([N+](=O)[O-])c2C)cc1 | -13.5
42 | COc1cccc(NC(=S)Nc2cc(C)cc(C)n2)c1 | -5.07
43 | O=C(COC(=O)C1CC(=O)N(c2ccccc2)C1)c1ccccc1 (stereo unspecified) | -1.52
44 | O=C(CCCn1c(=O)[nH]c2cc(Cl)ccc2c1=O)NC1CCCCCC1 | 4.06

Row | Structure (SMILES) | inhibition [%]
45 | COc1ccc(C(=O)/C=C/c2ccc(O)cc2)c(O)c1CC=C(C)C | 30.6
46 | O=C(COc1ccc([N+](=O)[O-])cc1)N(Cc1ccccc1)Cc1ccccc1 | 11.4
47 | CCOC(=O)n1ccc(C(=O)Nc2ccccc2F)n1 | -2.77
48 | COc1ccc(N2CC(C(=O)Nc3nnc(SCc4cccnc4)s3)CC2=O)cc1 (stereo unspecified) | -0.63
49 | COc1ccccc1N(C)S(=O)(=O)c1ccc(C(=O)OCC(=O)N2CCCCCC2)cc1 | 6.94
50 | COc1ccc2nc(-c3ccccc3)cc(OC)c2c1 | 76.9
51 | Cc1cccc(Nc2c([N+](=O)[O-])c(=O)n(C)c3ccccc23)c1 | 1.36
52 | Cc1cc(OCc2cc(C(=O)NCc3csc(C(C)C)n3)no2)cc(C)c1Cl | 29.4
53 | COc1ccc(C(=O)NC2CC2)cc1OC1CCN(Cc2cc(C)cc(C)c2)CC1 | 3.71
54 | CCN1CCN(CCCNC(=O)CN2C(=O)c3cccnc3Oc3ccc(Cl)cc32)CC1 | -5.6
55 | CC(=O)Nc1ccc(SCC(=O)c2cc(C)n(CC(F)(F)F)c2C)cc1 | 26.1
56 | CC1(c2ccc([N+](=O)[O-])cc2)NC(=O)N(CC(=O)c2ccc3c(c2)OCO3)C1=O (stereo unspecified) | -4.31
57 | O=C1c2ccccc2C(=O)c2c(Nc3ccc(CCO)cc3)ccc(O)c21 | 47.5
58 | COc1ccc(CN2CCNC(=O)C2CC(=O)N(C)Cc2ccon2)c(F)c1 (stereo unspecified) | 1.35
59 | Cc1nn(-c2ccccc2)c(C)c1C(=O)OCC(=O)N1CC(=O)Nc2ccccc21 | -3.98
60 | CCc1c(C)c2ccc(OCC(=O)OC(C)C)c(C)c2oc1=O | 91.2
61 | COc1cc(OC)cc(-c2cc3nc(C)c(CCC(=O)NC(C)CCc4ccco4)c(C)n3n2)c1 (stereo unspecified) | 91.6
62 | Cc1oc2cc3oc(=O)cc(C)c3cc2c1C | -2.99
63 | O=C(N=C1SC2CS(=O)(=O)CC2N1CCc1ccc(F)cc1)C1CCCCC1 (stereo unspecified) | 3.1
64 | Cc1ccc(C)c(-n2c(-c3csc(C)c3)n[nH]c2=S)c1 | -2.89
65 | COc1ccccc1N1CCN(C(=O)C2CCCN(S(=O)(=O)c3ccc4c(c3)oc(=O)n4C)C2)CC1 (stereo unspecified) | 3.84
66 | Cc1cc2c(cc1S(=O)(=O)NCC(C)c1ccccc1)n(C)c(=O)c(=O)n2C (stereo unspecified) | -2.26

Row | Structure (SMILES) | inhibition [%]
67 | CCc1ccc2nc(/N=C(\N)NC(=O)c3ccccc3)nc(C)c2c1 | -3.63
68 | O=C(Oc1c(-c2ccccc2)c(=O)n2c3c(cccc13)CC2)c1ccc(F)cc1 | 11
69 | NNC(=O)c1oc2nc(-c3ccco3)cc(-c3ccco3)c2c1N | 24.4
70 | COc1ccccc1CN1CC(C(=O)NCc2cc(C)on2)CCC1=O (stereo unspecified) | 1.14
71 | C=CCSc1nnc2c(n1)OC(c1c(C)[nH]n(-c3ccccc3)c1=O)Nc1ccccc1-2 (stereo unspecified) | 5.55
72 | Cc1cc(C(=O)Nc2nnc(C(F)(F)F)s2)no1 | 1.21
73 | CCn1c(CSc2nc(C)cs2)nc2cc(S(=O)(=O)N(C)C)ccc21 | -2.89
74 | O=C(CCCN=C1NS(=O)(=O)c2ccccc21)OCC(=O)N1CCc2ccccc21 | 1.2
75 | Cc1cc2nc(C)n(CCCNC(=O)Nc3ccc(F)cc3)c2cc1C | 5.04
76 | CCOC(=O)c1[nH]c(C)c(C(=O)Nc2cc(OC)ccc2OC)c1C | -0.71
77 | COc1ccc(-c2csc(-c3cccs3)n2)c(OC)c1 | 10.1
78 | COC(C(=O)Nc1ccnn1C1CCN(Cc2nccs2)CC1)c1ccccc1 (stereo unspecified) | 0.27
79 | CCOCC(=O)Nc1cc(C(F)(F)F)ccc1Oc1cccc(Br)c1 | 33.9
80 | COCc1nnc(NC(=O)c2ccc(S(=O)(=O)N(C)c3ccccc3)cc2)o1 | 11.1
81 | O=C1C(Cl)=C(N2CCCCCC2)C(=O)N1c1ccccc1Cl | -5.67
82 | COC(=O)c1ccc(NC(=O)CSc2nn3c(=O)c(C)nnc3s2)cc1 | 0.81
83 | Cc1ccc(OCc2nnc(SCc3ccc(C#N)cc3)n2-c2ccc(C)cc2)cc1 | 8.31
84 | Cc1noc(C)c1COc1ccc(C(=O)Nc2ccccn2)cc1 | -1.09
85 | N#Cc1c(N)[nH]c(=S)c(C#N)c1-c1ccccc1 | -4.37
86 | COC(=O)C1=C(C)N=C2SCCC(=O)N2C1c1ccc(C(=O)OC)cc1 (stereo unspecified) | -11.6
87 | COc1cc(NC(=O)C23CC4CC(C2)CC(n2nnc(C)n2)(C4)C3)c(OC)cc1Cl | 2.98
88 | COc1ccc(NS(=O)(=O)c2ccc3nc(COc4ccc(C#N)cc4)[nH]c3c2)cc1 | 4.82

Row | Structure (SMILES) | inhibition [%]
89 | O=C(NN=C(Cc1ccccc1)Cc1ccccc1)c1ccccc1F | 9.42
90 | O=C(CSc1nc2ccccc2o1)N1CCOCC1 | -2.89
91 | O=C(Cc1ccccc1Cl)Nc1nc2ccccc2[nH]1 | 4.62
92 | O=C(CN1CCN(S(=O)(=O)c2ccc(F)cc2)CC1)Nc1ccc2c(c1)OCCO2 | 32.5
93 | Cc1nn(-c2ccccc2)cc1/C=N/NC(N)=S | 34.3
94 | O=C(c1ccc([N+](=O)[O-])cc1)N(Cc1cccs1)C1CCS(=O)(=O)C1 (stereo unspecified) | 0.03
95 | CC(=O)N1CCc2cc(S(=O)(=O)N3CCc4ccccc43)ccc21 | 6.74
96 | Cc1ccc(-c2nc3sc(C(N)=O)c(N)c3c3c2CCCC3)cc1 | 4.43
97 | COc1cc(NC(=O)c2cc(Cl)ccc2Cl)ccc1-c1cc2ccccc2oc1=O | 70.4
98 | Cc1nc(SCCc2ccccc2)[nH]c(=O)c1C | 3.62
99 | Cc1ccsc1C(=O)NNC(=O)c1csc(N2CCOCC2)n1 | 18.1
100 | CCOc1ccc(CCNC(=O)c2c(C)nn(-c3ccccc3)c2Cl)cc1OCC | -2.58
101 | Cn1c(COc2ccc(Cl)cc2)nnc1SCC(=O)Nc1ccc2c(c1)CCC2 | 58.3
102 | Cc1ccc(C(=O)Nc2c(C)cc(C)c3cccnc23)cc1 | 32
103 | Cc1n[nH]c(C)c1CN(C)C(=O)c1cc(COc2ccc(F)c(F)c2)on1 | 4.04
104 | COc1ccccc1CN1CC(C(=O)N(C)Cc2ccncc2C)CCC1=O (stereo unspecified) | 4.24
105 | CCCCC1(c2ccc(F)cc2)NC(=O)N(CC(=O)N2CCN(C(=O)c3ccco3)CC2)C1=O (stereo unspecified) | -2.76
106 | O=C(Nc1nc(COc2ccccc2)cs1)C12CC3CC(CC(C3)C1)C2 | 28.2
